For 42 sequences, binding signal results are on record in PMC7819943, “Rice protein-binding microarrays: a tool to detect cis-acting elements near promoter regions in rice”.

The other results are listed elsewhere or left out.

In the experiment the target is T1, OsWOX13 (Oryza sativa, UniProt Q5QMM3 1-267).
T1 sequence: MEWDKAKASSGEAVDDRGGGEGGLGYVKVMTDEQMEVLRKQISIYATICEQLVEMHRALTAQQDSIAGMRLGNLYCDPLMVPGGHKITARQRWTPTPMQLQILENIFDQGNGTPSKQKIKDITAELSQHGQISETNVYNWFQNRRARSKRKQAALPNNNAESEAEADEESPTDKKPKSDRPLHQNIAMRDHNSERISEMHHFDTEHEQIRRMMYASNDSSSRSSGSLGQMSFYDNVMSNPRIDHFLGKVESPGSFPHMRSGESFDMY
As to the kind of experiment: protein-binding microarray (RPBM); PBS, 2% BSA, 51.3 ng/ul salmon testes DNA, 50 uM zinc acetate, 200 nM TF, 25 C, 1 h; high values mean tight binding. To be noted: protein: recombinant; tags: N-terminal polyhistidine and DsRed monomer fusion (pET32a); label: CyDye5-dUTP incorporated in the synthesized complementary strand; 3' TTTTT single-stranded linker to array surface; dsDNA, one strand shown. In short, it runs like this:
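Using Ni–NTA, transcription factors fused N-terminally to polyhistidine and DsRed were purified after expression in E. coli BL21-CodonPlus. These were incubated at 200 nM with a blocked, double-stranded custom Agilent array for 1 h at 25 °C in a buffer containing 50 µM zinc acetate, and the array was washed. The binding signal is per-feature fluorescence intensity (arbitrary units) on an Axon 4000B scanner.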
As to “TACCAAAATGATTACTCCCTTCATCTAGCATTATACCAACCGGAGTCACCTAGTGCAG”, the binding signal was 3450 fluorescence intensity (a.u.).

For the sequence “GGCTAATCTGATCTTAATGATCAAGACACGCATGAGTGAGCGGAGTCACCTAGTGCAG”, the binding signal is 7840 fluorescence intensity (a.u.).

With “TGATTAACGTGGTTCAAATTGATTCTTAGAAAATGAAAAGCGGAGTCACCTAGTGCAG”, the binding signal is 7510 fluorescence intensity (a.u.).

Regarding “CTTCATCTTAATTATATCTACCTACTCTTCATAAGGAAATCGGAGTCACCTAGTGCAG”, the binding signal was 5330 fluorescence intensity (a.u.).

Regarding “CACCAATTTGATTGTTTTATTATTTTAAATCTTCAGTACTCGGAGTCACCTAGTGCAG”, the binding signal was 14200 fluorescence intensity (a.u.).

As for “AAAAGGTACTCCTAAATTGATAATCGTCGTGAACAAATAGCGGAGTCACCTAGTGCAG”, the binding signal was 4470 fluorescence intensity (a.u.).

As for “CCCATGTAGATTGGGCCTGCTTAGTGAAGTCTCACGTAGCCGGAGTCACCTAGTGCAG”, the binding signal was 5240 fluorescence intensity (a.u.).

“AAATATTATAATTGATTGTCGATGAAACATCGGGTTGTACCGGAGTCACCTAGTGCAG”: the binding signal is 46200 fluorescence intensity (a.u.).

Regarding “CTAGTTGATGGGTGGTTGACGTTTCATCGAGCTATCCTAGCGGAGTCACCTAGTGCAG”, the binding signal was 7250 fluorescence intensity (a.u.).

For “CAAATAGATAGATTAATATGCAGTATAACACTCTACAAATCGGAGTCACCTAGTGCAG”, the binding signal was 32400 fluorescence intensity (a.u.).

As for “GGTGGTGGTGGTGGTGGTGGTGGTGTAGGAGGAGGAGGAGCGGAGTCACCTAGTGCAG”, the binding signal was 22300 fluorescence intensity (a.u.).

In the case of “GCGCCACATAATTGTAGTCATCCTGCCGGTAACCATTTCGCGGAGTCACCTAGTGCAG”, the binding signal was 5940 fluorescence intensity (a.u.).

Consider “ACTATTCATGTTCAACGTTTGACTGTCCGTCTTATTTGAACGGAGTCACCTAGTGCAG”, for which the binding signal was 4450 fluorescence intensity (a.u.).

In the case of “AAGCATGCACCTGATTGATTCACTAAACGTATCGTCGACACGGAGTCACCTAGTGCAG”, the binding signal was 18800 fluorescence intensity (a.u.).

Regarding “TGGCTAATTTGACTAAGTCTTCTTCCAACGTGGCATTGGCCGGAGTCACCTAGTGCAG”, the binding signal was 19800 fluorescence intensity (a.u.).

Turning to “GAGCAAATAATTGCACTCCACTGGAGTACCCGTAGTACGACGGAGTCACCTAGTGCAG”, the binding signal is 3620 fluorescence intensity (a.u.).

In the case of “GTTAGATTGTAACAATAAACTGTAACTCTCCTGAGCAGAGCGGAGTCACCTAGTGCAG”, the binding signal was 22700 fluorescence intensity (a.u.).

Take “TTACGAAAACAGTTAAATTGAATGGAACCAAGCCAGATCACGGAGTCACCTAGTGCAG”: the binding signal is 6460 fluorescence intensity (a.u.).

Turning to “GCCTAATTAATCCATCATTAGCAAATGTTTACTGTAGCACCGGAGTCACCTAGTGCAG”, the binding signal is 48200 fluorescence intensity (a.u.).

With “AGCAGATGAGAACAGTGATTTGTATCTTTCTGAGCACTATCGGAGTCACCTAGTGCAG”, the binding signal was 11800 fluorescence intensity (a.u.).

Take “TTTAATCACTAATTAATTGTTGATTAGCGGCAAGTGTGACCGGAGTCACCTAGTGCAG”: the binding signal is 63800 fluorescence intensity (a.u.).

For the sequence “CTAATTAATCATCAGTTGATAATTTCCCTAACTGTGGCGTCGGAGTCACCTAGTGCAG”, the binding signal is 49600 fluorescence intensity (a.u.).

Consider “AAATAATTTACTAAAATTTTGGTAATATTATCAATTTACCCGGAGTCACCTAGTGCAG”, for which the binding signal is 21700 fluorescence intensity (a.u.).

For the sequence “ATCCAAATTAATTTCATGTGATGTGCAGCAGTAGGAGGTACGGAGTCACCTAGTGCAG”, the binding signal is 43800 fluorescence intensity (a.u.).

Consider “TATAAATTTGCCTCAATAATGGTGAAGTGAGCGTTGCTCACGGAGTCACCTAGTGCAG”, for which the binding signal is 4200 fluorescence intensity (a.u.).

For “CCTTGATGACATGCTCTGACAGCTCATGAGTTCTACTGGACGGAGTCACCTAGTGCAG”, the binding signal was 24200 fluorescence intensity (a.u.).

With “TATTATATATCACACAAATTAAATAGGAAAGTAATTTGATCGGAGTCACCTAGTGCAG”, the binding signal was 4010 fluorescence intensity (a.u.).

On to “TCAGATTAACAACACAAACCGACAGTCAAAACTGAATTAGCGGAGTCACCTAGTGCAG”, for which the binding signal was 7060 fluorescence intensity (a.u.).

Turning to “AAGCATAAATTGGTCCGCATCTTGCTTGTGTAAGCTGTCCCGGAGTCACCTAGTGCAG”, the binding signal is 8510 fluorescence intensity (a.u.).

With “GGCGGTGTTAATTGCGATCAGATTATAAAACGAGACCTAGCGGAGTCACCTAGTGCAG”, the binding signal is 24900 fluorescence intensity (a.u.).

Consider “AATATATCCAATAATTGATTTAAGGGAACTAATCTGAACACGGAGTCACCTAGTGCAG”, for which the binding signal was 28400 fluorescence intensity (a.u.).

In the case of “CATAATTAATAGCACTTCCGATCTGACCACTTGATATATTCGGAGTCACCTAGTGCAG”, the binding signal was 12700 fluorescence intensity (a.u.).

For “ACATTGGTGATTTTGGTAATTTTAGGCAGGAAACAACTGCCGGAGTCACCTAGTGCAG”, the binding signal was 9730 fluorescence intensity (a.u.).

Take “TTAAAATGCTGAGTTATAATCAATTTGTGTTTGAAATGCACGGAGTCACCTAGTGCAG”: the binding signal was 4820 fluorescence intensity (a.u.).

Take “GTACAAATATAATTATACAGCCTCCAAAATGTTGCTTTAACGGAGTCACCTAGTGCAG”: the binding signal was 6190 fluorescence intensity (a.u.).

As for “CGTACTGATGGAAACGAGAAATAGCTAAGCTGAACCAGCTCGGAGTCACCTAGTGCAG”, the binding signal is 3580 fluorescence intensity (a.u.).

Regarding “AGTTACTCGTCAAATCACCAATTTCACCAGCCGTCGGTCCCGGAGTCACCTAGTGCAG”, the binding signal is 3530 fluorescence intensity (a.u.).

Take “AGGTAAATTTTGCTACATGACATCGTGACTTTGCGGTTTTCGGAGTCACCTAGTGCAG”: the binding signal was 8890 fluorescence intensity (a.u.).

“TTTTAACGAAATTTTCATGGGGCAAATTTGGATCGCGACCCGGAGTCACCTAGTGCAG”: the binding signal is 4220 fluorescence intensity (a.u.).

Regarding “TATATATATATATATATATATATAAAATAAGAAAATCTGACGGAGTCACCTAGTGCAG”, the binding signal is 39500 fluorescence intensity (a.u.).

Turning to “AGGCCTGATTGAGACAACTATCATTCGTAATGAGCTTAACCGGAGTCACCTAGTGCAG”, the binding signal was 34300 fluorescence intensity (a.u.).

As to “TAATAATCATTTTCTCAGTAAATTCACATACACAAAGATGCGGAGTCACCTAGTGCAG”, the binding signal was 3210 fluorescence intensity (a.u.).
